Measurements published in PubChem BioAssay AID1468 (National Center for Advancing Translational Sciences (NCATS), 2008).
Values joined by “and” are separate entries in the source; they are usually repeats but may differ in a detail not shown here. Equal entries are not always repeated. The campaign covered roughly 280,000 compounds. About 1,100 (0.39%) were called active. Inconclusive results, whose numbers are uncertain, are shown with a selection of clear calls. Calls follow the shape of the dose curve; as a rule, active = well fitted inhibition curve with a large enough effect; inconclusive = small, poorly fitted or top-dose-only effect, or effect the other way; inactive = flat fitted curve, though single readings scatter. Potencies beside an inconclusive call are fits to weak or partial responses and may not hold up.

Each compound was assayed against Microtubule-associated protein tau (Homo sapiens) (UniProt P10636) (assay: qHTS for Inhibitors of Tau Fibril Formation, Fluorescence Polarization). Details: K18 P301L tau heparin fibrillization, Alexa594 FP, 6 h; series mostly up to 57.7 µM.
How it was run: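 Steps: dispense K18 P301L tau (15 uM plus 0.24 uM Alexa 594 tracer, final) in pH 7 sodium acetate; add compound; add heparin (20 uM final); incubate 6 hr, 37 C; add ThT (30 uM final); after 1 hr ambient, read FP.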
Also: nearly all actives have a fitted effect of over 55% in size.
Potency is read from the fitted curve at half-maximal effect; tags tell the direction and shape of the fitted curve.

Chain of UniProt P10636 (P10636 whole entry, looked up): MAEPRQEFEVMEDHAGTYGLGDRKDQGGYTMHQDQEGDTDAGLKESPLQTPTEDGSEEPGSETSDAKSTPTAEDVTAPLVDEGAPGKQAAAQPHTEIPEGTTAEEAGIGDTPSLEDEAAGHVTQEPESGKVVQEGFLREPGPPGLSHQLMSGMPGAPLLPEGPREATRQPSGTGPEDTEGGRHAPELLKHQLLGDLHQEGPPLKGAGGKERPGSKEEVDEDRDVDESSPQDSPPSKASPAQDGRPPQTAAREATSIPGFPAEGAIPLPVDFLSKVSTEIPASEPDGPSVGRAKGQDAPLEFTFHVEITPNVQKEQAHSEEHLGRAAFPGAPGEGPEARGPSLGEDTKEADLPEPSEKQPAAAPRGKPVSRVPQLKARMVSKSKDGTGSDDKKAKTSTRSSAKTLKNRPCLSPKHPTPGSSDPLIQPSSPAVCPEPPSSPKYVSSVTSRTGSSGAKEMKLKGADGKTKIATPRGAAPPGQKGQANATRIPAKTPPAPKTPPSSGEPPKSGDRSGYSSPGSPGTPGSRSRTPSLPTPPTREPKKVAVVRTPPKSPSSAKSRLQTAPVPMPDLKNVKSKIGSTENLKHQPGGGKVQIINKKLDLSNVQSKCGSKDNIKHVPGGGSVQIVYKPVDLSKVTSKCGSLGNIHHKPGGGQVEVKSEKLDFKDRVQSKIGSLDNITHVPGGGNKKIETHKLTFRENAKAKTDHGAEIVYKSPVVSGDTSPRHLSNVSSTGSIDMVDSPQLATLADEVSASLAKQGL

| SMILES | Potency |
| --- | --- |
| Cc1ccc(NC(=O)CSc2ncc3c(n2)-c2ccccc2N(Cc2cccc(F)c2)S3(=O)=O)cc1F | inconclusive: 14.1 µM [inhibitor, partial curve] |
| COc1cccc([C@@H]2Oc3ccc(Br)cc3C[C@H]2OC(=O)NS(=O)(=O)c2ccc(C)cc2)c1 | inconclusive: 5.01 µM [inhibitor, full curve] |
| CC(C)c1ccc(S(=O)(=O)c2nnn3c2nc(NCCc2ccccc2)c2sccc23)cc1 | inconclusive: 12.6 µM [inhibitor, partial curve] |
| CCCn1c(=O)c2sccc2n2c(CCCC(=O)NCCc3ccc(Cl)cc3)nnc12 | inactive |
| COc1cc(-c2ccno2)ccc1S(=O)(=O)N1CCN(c2cc(C)ccc2C)CC1 | inactive |
| COc1ccccc1NC(=O)c1c(Nc2ccccc2F)sc(C(=O)Nc2cccc(Cl)c2)c1N | inconclusive: 39.8 µM [inhibitor, single point] |
| O=c1nc2sc3ccccc3n2c(=O)n1-c1ccc(Cl)c(Cl)c1 | inconclusive: 22.4 µM [inhibitor, single point] |
| O=C1c2[nH]nc(-c3ccccc3O)c2C(c2ccc(Cl)cc2)N1Cc1ccco1 (stereo unspecified) | inconclusive: 25.1 µM [inhibitor, single point] |
| Cc1ccc(C2C=C(c3ccc(Cl)cc3)Nc3nc(NS(=O)(=O)c4ccccc4)nn32)cc1 (stereo unspecified) | inconclusive: 28.2 µM [inhibitor, single point] |
| O=C(O)c1ccc(C2CCCCC2)cn1 | inactive |
| O=C(COC(=O)C12CC3CC(CC(C3)C1)C2)NC12CC3CC(CC(C3)C1)C2 | inconclusive: 0.0794 µM [inhibitor, full curve, poor fit] |
| CCN(CC)C(=O)CSc1nc2ccc(NC(=O)CSc3nnc(N)s3)cc2s1 | inactive |
| COc1cc2oc(=O)cc(-c3ccc(-c4ccc(O)cc4)cc3)c2c(OC)c1OC | inconclusive: 22.4 µM [inhibitor, partial curve] |
| Cc1ccc(N(CC(O)COCc2ccco2)S(=O)(=O)c2ccc(C)cc2)cc1 (stereo unspecified) | inconclusive: 35.5 µM [inhibitor, partial curve] |
| CCOC(=O)c1cc(-c2ccccc2)sc1NC(=O)CSc1nnc(N)s1 | inconclusive: 15.8 µM [inhibitor, partial curve] |
| Cc1ccc(CNC(=O)CCCCn2c(=O)c3ccccc3n(Cc3c(C)cc(C)cc3C)c2=O)cc1 | inactive |
| CCOC(=O)c1ccccc1NC(=O)Cn1c(=O)n(Cc2nc(-c3ccccc3)no2)c(=O)c2ccccc21 | inconclusive: 25.1 µM [inhibitor, single point] |
| CC(C)Oc1cccc(C(=O)NC(=S)Nc2cccc(C(F)(F)F)c2)c1 | inconclusive: 15.8 µM [inhibitor, single point] |
| CC(C)CCC1=NN(C(=O)c2ccco2)C(O)(C(F)(F)F)C1 (stereo unspecified) | inactive |
| COc1ccc(C(=O)NCCn2cc(SCC(=O)Nc3cccc(C)c3)c3ccccc32)cc1 | inconclusive: 31.6 µM [inhibitor, single point] |
| Cc1ccc(NC(=O)Cn2cnc3c(nnn3Cc3ccc(F)cc3)c2=O)cc1 | inactive |
| CC(C)C(=O)N(c1ccc2oc(=O)sc2c1)S(=O)(=O)c1cccs1 | inconclusive: 11.2 µM [inhibitor, partial curve] |

| SMILES | Potency |
| --- | --- |
| CC(C)Sc1nc(NCc2ccco2)c2c3c(sc2n1)COC(C)(C)C3 | inconclusive: 39.8 µM [inhibitor, single point] |
| CCn1nnc(NC(=O)CSc2ccc(Cl)cc2)n1 | inactive |
| Cc1cccc(-n2ncc3c(Nc4ccc(Oc5ccc(Cl)cc5)cc4)ncnc32)c1 | active: 12.6 µM |
| COc1cc(-c2nc3nc[nH]n3c2Nc2ccc(C(C)C)cc2)ccc1O | inconclusive: 25.1 µM [inhibitor, single point] |
| Cc1cc(N2CCCCC2)nc2ccc(NC(=O)c3ccc(Br)o3)cc12 | inconclusive: 2.24 µM [activator, full curve, poor fit] |
| Cc1oc2ncn(CC(C)C)c(=O)c2c1C(=O)N1CCN(c2cccc(C(F)(F)F)c2)CC1 | inactive |
| COc1ccc(/C=C/C(=O)Nc2cc(C(F)(F)F)ccc2Cl)cc1OC | inconclusive: 14.1 µM [inhibitor, partial curve] |
| COc1ccc(CNC(=O)c2cc3c(=O)[nH]c4ccccc4c3s2)cc1 | inconclusive: 11.2 µM [inhibitor, partial curve, poor fit] |
| O=C(NC(=S)Nc1cc(-c2nc3ccccc3[nH]2)ccc1Cl)c1ccc2c(c1)OCO2 | inconclusive: 4.47 µM [inhibitor, partial curve] |
| FC(F)Sc1ccc(NC(=S)NC2CCC(NC(=S)Nc3ccc(SC(F)F)cc3)CC2)cc1 (stereo unspecified) | inconclusive: 5.62 µM [inhibitor, partial curve] |
| O=C(NC1CCCCC1)c1cc(Nc2cccc(C(F)(F)F)c2)nc2ccccc12 | inconclusive: 20 µM [inhibitor, partial curve] |
| COc1ccc(Cl)cc1NC(=O)Cn1c(=O)n(Cc2ccco2)c(=O)c2cccnc21 | inconclusive: 25.1 µM [inhibitor, partial curve] |
| Cn1c(=O)c2c(nc(CN3CCN(CCO)CC3)n2Cc2cccc3ccccc23)n(C)c1=O | inactive |
| CC(C)NCCCCOc1cccc(Br)c1 | inactive |
| COc1ccc(N(CC(=O)N/N=C/c2cc(Br)c(C)o2)S(=O)(=O)c2ccc(NC(C)=O)cc2)cc1 | inconclusive: 17.8 µM [inhibitor, partial curve, poor fit] |
| Cc1cc(C)c(NC(=O)CS)c(Cl)c1 | inconclusive: 25.1 µM [inhibitor, single point] |
| CN1/C(=C\C=C2/C(=O)Oc3ccccc3C2=O)C(C)(C)c2ccccc21 | inactive |
| OCC(O)CN1CCCC1 (stereo unspecified) | inconclusive: 39.8 µM [inhibitor, single point] |
| NC(=O)c1ccc(C(=O)c2ccc([N+](=O)[O-])cc2)cc1 | inactive |
| O=C(NCc1ccccn1)Nc1ccc(Cl)c(Cl)c1 | inconclusive: 39.8 µM [inhibitor, single point] |
| CCCNc1nc2c(c(=O)n(C)c(=O)n2C)n1Cc1cccc(C)c1 | inactive |
| CCC(CC)c1nn2c(N)c(/C=C3\C=Nc4ccccc43)c(=O)nc2s1 | inconclusive: 31.6 µM [inhibitor, single point] |

| SMILES | Potency |
| --- | --- |
| Cc1ccc(C)c(S(=O)(=O)Nc2ccc(O)c(C(=O)O)c2)c1 | inactive |
| CCOC(=O)c1ccc(NC(=O)CC2C(=O)N(c3ccccc3)C(=O)N2Cc2cccs2)cc1 (stereo unspecified) | inconclusive: 14.1 µM [inhibitor, partial curve, poor fit] |
| O=C1OC(Nc2ccc3c(c2)OCO3)c2ccccc21 (stereo unspecified) | inconclusive: 8.91 µM [inhibitor, partial curve] |
| CC(=O)OCCCNc1cc(Sc2ccc(Cl)cc2)c2nonc2c1[N+](=O)[O-] | inconclusive: 31.6 µM [inhibitor, partial curve, poor fit] |
| O=[N+]([O-])c1cccnc1Sc1n[nH]c(-c2ccc(Cl)cc2)n1 | inactive |
| O=C(CS(=O)c1ccccc1[N+](=O)[O-])Oc1ccc(Br)cc1 (stereo unspecified) | inconclusive: 17.8 µM [inhibitor, single point] |
| COC(=O)CCc1sc(Nc2ccc(OC)cc2)nc1-c1ccc(OC)cc1 | inactive |
| CCOC(=O)c1sc2nc(NC(=O)C3CCCCC3)sc2c1C | inconclusive: 39.8 µM [inhibitor, single point] |
| Cc1ccc2cc(CN(CC3CCCO3)C(=S)NCc3ccco3)c(=O)[nH]c2c1C (stereo unspecified) | inactive |
| CC(=O)c1ccc(NC(=S)Nc2ccc3[nH]c(=O)[nH]c3c2)cc1 | inactive |
| CCN1c2ccccc2-c2nc(SCC(=O)Nc3ccc(C)c(Cl)c3)ncc2S1(=O)=O | inconclusive: 17.8 µM [inhibitor, partial curve] |
| CCNC(=O)c1c(N)sc2c1CCCCC2 | inconclusive: 20 µM [inhibitor, partial curve] |
| CC(=O)c1cc(C(=O)Nc2cccc(C)c2)c2ccccn12 | inconclusive: 17.8 µM [inhibitor, partial curve] |
| NNC(=O)CNC(c1ccccc1)c1cc(Br)ccc1NC(=O)c1cccc(Cl)c1 (stereo unspecified) | inconclusive: 17.8 µM [inhibitor, single point] |
| CCOc1ccc(NC(=O)CSc2ncc3c(n2)-c2ccccc2N(C)S3(=O)=O)cc1 | inconclusive: 28.2 µM [inhibitor, single point] |
| Clc1ccccc1-c1nc(Nc2ccccc2)nc2ccc(Br)cc12 | inconclusive: 12.6 µM [inhibitor, partial curve] |
| O=C(O)/C=C/C(=O)c1ccc(O)cc1 | inconclusive: 22.4 µM [inhibitor, partial curve, poor fit] |
| Cc1ccc(-n2c([S-])c(C(=O)NC(C)c3ccccc3)[n+]3ccccc23)cc1 (stereo unspecified) | inactive |
| COc1cccc(N2CCN(C(=O)C3CCC(CNS(=O)(=O)c4ccc(Br)s4)CC3)CC2)c1 (stereo unspecified) | inconclusive: 44.7 µM [activator, single point] |
| O=c1cc(-c2ccccc2)oc2cc(O)cc(O)c12 | inconclusive: 15.8 µM [inhibitor, partial curve] and inconclusive: 35.5 µM [inhibitor, single point] |
| c1csc(CNc2ncnc3ccc(-c4ccc5c(c4)OCO5)cc23)c1 | inconclusive: 12.6 µM [inhibitor, single point] |
| CN1CC(c2ccccc2)C2(SC(=S)N(Cc3ccco3)C2=O)C12C(=O)Nc1ccccc12 (stereo unspecified) | inconclusive: 2.82 µM [inhibitor, full curve, poor fit] |
